Measurements taken from publication PMC10693172.
No constants are given. Whether binding was seen depends on the method and setting. Binding seen in cells or lysates may run through a third protein. Some binding calls cover weakened binding; strength is not graded here.

Protein sequences, listed by entry. Tags and fused reporters are not part of them.
UniProt Q08211: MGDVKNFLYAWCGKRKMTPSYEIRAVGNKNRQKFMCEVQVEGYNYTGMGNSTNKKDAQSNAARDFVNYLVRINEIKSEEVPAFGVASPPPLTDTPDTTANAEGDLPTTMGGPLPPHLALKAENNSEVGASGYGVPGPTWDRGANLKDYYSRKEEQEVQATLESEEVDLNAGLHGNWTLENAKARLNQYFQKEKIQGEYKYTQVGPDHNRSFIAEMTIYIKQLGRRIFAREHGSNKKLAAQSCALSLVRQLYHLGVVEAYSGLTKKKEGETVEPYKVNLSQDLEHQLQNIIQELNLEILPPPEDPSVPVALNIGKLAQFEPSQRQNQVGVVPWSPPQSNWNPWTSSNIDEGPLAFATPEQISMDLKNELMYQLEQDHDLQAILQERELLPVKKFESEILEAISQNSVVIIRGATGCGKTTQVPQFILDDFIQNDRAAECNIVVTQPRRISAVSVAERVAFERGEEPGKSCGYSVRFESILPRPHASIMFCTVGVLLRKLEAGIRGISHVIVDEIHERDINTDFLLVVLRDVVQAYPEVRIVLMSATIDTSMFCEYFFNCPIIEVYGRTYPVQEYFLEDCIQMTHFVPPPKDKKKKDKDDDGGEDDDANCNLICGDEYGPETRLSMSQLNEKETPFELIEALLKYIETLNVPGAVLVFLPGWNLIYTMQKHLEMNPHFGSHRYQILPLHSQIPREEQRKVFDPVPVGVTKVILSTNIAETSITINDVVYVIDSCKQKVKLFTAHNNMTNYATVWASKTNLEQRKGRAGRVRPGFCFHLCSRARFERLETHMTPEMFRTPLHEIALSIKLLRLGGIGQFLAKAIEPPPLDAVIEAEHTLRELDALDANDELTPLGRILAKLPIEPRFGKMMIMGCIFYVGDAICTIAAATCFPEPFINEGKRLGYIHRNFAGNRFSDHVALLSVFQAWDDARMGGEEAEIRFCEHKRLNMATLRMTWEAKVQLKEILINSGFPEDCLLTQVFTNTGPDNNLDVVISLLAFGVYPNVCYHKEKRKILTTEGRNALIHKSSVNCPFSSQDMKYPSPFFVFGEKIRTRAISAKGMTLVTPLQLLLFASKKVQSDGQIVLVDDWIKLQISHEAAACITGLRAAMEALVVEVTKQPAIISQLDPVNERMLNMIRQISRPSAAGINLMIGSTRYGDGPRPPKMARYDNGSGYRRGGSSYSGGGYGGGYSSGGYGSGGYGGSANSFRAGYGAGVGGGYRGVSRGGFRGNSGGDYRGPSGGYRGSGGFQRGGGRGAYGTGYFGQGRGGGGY
UniProt Q00987: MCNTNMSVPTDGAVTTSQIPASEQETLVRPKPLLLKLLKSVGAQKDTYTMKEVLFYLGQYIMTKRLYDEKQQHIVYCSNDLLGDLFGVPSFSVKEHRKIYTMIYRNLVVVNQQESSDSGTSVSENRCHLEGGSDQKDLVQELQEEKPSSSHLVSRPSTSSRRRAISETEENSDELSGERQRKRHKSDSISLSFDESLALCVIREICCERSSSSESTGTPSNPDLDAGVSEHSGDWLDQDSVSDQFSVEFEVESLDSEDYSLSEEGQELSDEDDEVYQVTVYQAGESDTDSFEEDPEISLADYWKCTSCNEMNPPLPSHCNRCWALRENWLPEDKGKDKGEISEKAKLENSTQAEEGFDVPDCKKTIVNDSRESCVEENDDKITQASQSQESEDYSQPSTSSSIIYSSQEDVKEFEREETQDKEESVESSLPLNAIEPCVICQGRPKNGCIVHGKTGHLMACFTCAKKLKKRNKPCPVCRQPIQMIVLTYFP
UniProt Q86TM6: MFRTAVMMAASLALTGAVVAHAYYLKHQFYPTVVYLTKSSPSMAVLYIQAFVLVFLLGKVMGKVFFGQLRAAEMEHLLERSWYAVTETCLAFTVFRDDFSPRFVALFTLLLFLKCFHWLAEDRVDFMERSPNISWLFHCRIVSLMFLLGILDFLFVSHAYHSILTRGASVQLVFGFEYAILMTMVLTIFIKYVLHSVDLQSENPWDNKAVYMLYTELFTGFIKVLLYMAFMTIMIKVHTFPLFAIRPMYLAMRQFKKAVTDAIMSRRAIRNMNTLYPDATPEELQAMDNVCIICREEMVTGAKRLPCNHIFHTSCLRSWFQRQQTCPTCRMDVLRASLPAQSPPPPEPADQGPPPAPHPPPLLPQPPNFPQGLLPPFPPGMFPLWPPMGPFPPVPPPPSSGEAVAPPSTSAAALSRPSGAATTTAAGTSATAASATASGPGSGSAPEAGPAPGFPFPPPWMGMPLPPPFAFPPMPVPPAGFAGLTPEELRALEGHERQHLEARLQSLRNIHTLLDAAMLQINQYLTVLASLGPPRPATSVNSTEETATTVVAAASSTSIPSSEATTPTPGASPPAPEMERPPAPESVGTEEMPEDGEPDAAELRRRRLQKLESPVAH

Biological target: DHX9 (DExH-box helicase 9) (human (endogenous in AGS and HGC-27)) (UniProt Q08211)
Assay: co-IP; endogenous proteins, GC cell lysate; immunoprecipitation with a DHX9 antibody, immunoblotting for MDM2 and SYVN1 (Fig. 5B)

binding	Substance
binds	E3 ligase MDM2 (from UniProt Q00987 1-491)
no binding	SYVN1 (from UniProt Q86TM6 1-617)
